The whole screen tested about 48,000 compounds, of which about 120 (0.25%) were called active. Not shown: some 4% with an inconclusive outcome. Calls come from the whole dose curve; as a rule, active = well fitted activation curve with a large enough effect; inconclusive = small, poorly fitted or top-dose-only effect, or another doubt; inactive = no such curve, though single readings can be large or run the other way. This is one part of the list.
Assay: Primary qHTS for Identification of Small Molecule Activators of Huntingtin-Antisense Promoter Activity; note: nearly all actives have a fitted effect of over 55% in size
Settings: HEK293 HTT-AS promoter firefly luciferase reporter, 24 h; series mostly up to 57.5 µM; activity change, positive = activation: at the top concentration
Procedure, shortened: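 Firefly luciferase readout (Dual-Glo, 10 min RT) after 24 h, 37 °C compound exposure (final up to 57.5 uM) of HEK293 reporter cells cultured 24 h beforehand; PTC124 at 50 uM final as control inhibitor; activity scaled vehicle 0%, zero RLU -100%.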

Activity change, positive = activation, inactive:
COc1ccc(OCCn2nnc3sc4c(c3c2=O)CCCC4)cc1 7.25%, COc1ccc(N2CCN(c3ncnc4c3nnn4C)CC2)cc1 -4.33%, COC(=O)c1cc2sccc2n1CC(=O)Nc1cc(Cl)ccc1OC -85%, CCOc1ccc(-n2c(=O)c3c(C)c(C(=O)N(C)C)sc3n(Cc3cc(C)ccc3C)c2=O)cc1 -6.69%, Cc1ccc(S(=O)(=O)C(CNC(=O)C(=O)NCc2ccc(Cl)cc2)c2ccco2)cc1 (stereo unspecified) -20.2%, CN(C(=O)CSc1nc2ccccc2n1Cc1ccccc1C#N)c1ccccc1 -32%, CCOc1ccc(-c2nc3cc(NC(=O)COc4cccc(C)c4)ccc3o2)cc1 -18.2%, O=c1c2sc3ccccc3c2n(Cc2ccc(F)cc2Cl)c(=O)n1Cc1ccccc1 -12.4%, COC(=O)c1ccc2nc(C)cc(Nc3cccc(Cl)c3C)c2c1 -35.5%, Cc1ccc2oc(-c3ccc(C)c(NC(=O)c4ccc(-c5ccccc5[N+](=O)[O-])o4)c3)nc2c1 18.7%, CCOc1ccc(S(=O)(=O)N(CC(=O)Nc2ccc3c(c2)OCO3)c2ccc(C)cc2)cc1 -11.5%, CCn1cc(S(=O)(=O)c2ccc(Cl)cc2)c(=O)c2cc(F)c(N3CCOCC3)cc21 -5.97%, CCN(CC)S(=O)(=O)c1ccc(N2CCCCS2(=O)=O)cc1 -0.0713%, Cc1ccc2onc(CNC(=O)N3CCN(c4cccc(C(F)(F)F)c4)CC3)c2c1 -18.6%, Cc1ccc(CNC(=O)CN2C(=O)CCc3cc(S(=O)(=O)N4CCCCC4)ccc32)cc1 -2.84%, COc1cc(CN(C(=O)c2ccc(Cl)cc2)C2CCS(=O)(=O)C2)cc(OC)c1OC (stereo unspecified) -3.49%, CCOC(=O)c1ccc(-c2ccc(/C=C(\C#N)C(=O)Nc3ccc(C)cc3)o2)cc1 17.9%, CCC(C(=O)NC1CCCCC1)n1c(SCc2cccc(F)c2)nc2ccncc21 (stereo unspecified) -28.5%, COc1ccccc1NC(=O)Cn1ccn(-c2cc(C)cc(C)c2)c(=O)c1=O -4.32%, CC(CNC(=O)C1CCN(C(=O)c2cc3sccc3n2C)CC1)c1ccccc1 (stereo unspecified) -4.92%, CCOc1ccc(CNCc2c(C(=O)O)n(Cc3ccccc3C)c3cc(OC)ccc23)cc1OC -16.8%, O=C(C1CCCCC1)N1CC(=O)N2CCCc3ccccc3C2C1 (stereo unspecified) -12.1%, Cc1ccc(Cl)cc1Nc1nn2c(=O)c3ccc(C(=O)NC(C)c4ccccc4)cc3nc2s1 (stereo unspecified) -36.2%, Cc1cccc(CN2CCN(C(c3ccccc3)c3ccc(Cl)cc3)CC2)c1 (stereo unspecified), Cc1ccc(Cl)cc1N1CCN(C(=O)CCS(=O)(=O)c2ccc3c(c2)oc(=O)n3C)CC1 -31.4%, Cn1nc(C(=O)NCc2ccccc2)c2c1-c1ccccc1S(=O)(=O)C2 -6.54%, CCOc1cccc(NC(=O)C2CC(=O)N(C)C(=Nc3ccc(OC)cc3)S2)c1 (stereo unspecified) -17.4%, CCc1ccc(N(CC)C(=O)Cn2cnc3sc(C)c(S(=O)(=O)N4CCN(c5ncccn5)CC4)c3c2=O)cc1 -4.69%, CCCOc1ccccc1C1C(C(=O)Nc2ccccc2)=C(C)Nc2nnnn21 (stereo unspecified) -9%, CCCC1=Nc2cc(C(=O)NCCOC)ccc2Sc2ccccc21 -37.8%, Cc1cccc(S(=O)(=O)c2cn(C)c3cc(N4CCC(C)CC4)c(F)cc3c2=O)c1 7.89%, CCC(=O)N1c2ccc(S(=O)(=O)CCC(=O)NCc3cccc(OC)c3)cc2CC1C (stereo unspecified) -7.16%, O=C(NCc1ccccc1Cl)c1nnc(Cc2ccc(Cl)cc2)o1 -4.2%, COc1ccc(-c2noc(CSc3nnc(C)n3-c3ccc(C)c(C)c3)n2)c(OC)c1 -28.9%, COc1ccc(-c2nc(SCC(=O)NCCc3ccccc3)n[nH]2)cc1 -15.7%, Cc1ccc2onc(CC(=O)N3CCN(c4ccccc4)CC3)c2c1 -5.96%, COc1ccccc1O -7.32% [at 116 µM, percent change from vehicle, -100% = no light], CCOc1ccc(NC(=O)C(C)n2c(=O)cc(C)c3c(C)nn(-c4ccccc4)c32)cc1 (stereo unspecified) -5.89%, N#C/C(=C\c1cc(Br)c(O)c(Br)c1)c1nc2ccccc2c(=O)[nH]1 -18.9%, CCc1ccc(OCC(=O)Nc2ccc3c(c2)c2ccccc2n3CC)c(Br)c1 -0.694% [at 11.5 µM, percent change from vehicle, -100% = no light], Cc1ccc(CCNC(=O)CCn2nc(-c3ccc(C)cc3)ccc2=O)cc1 -10.9%, COC(=O)c1ccc2c(=O)n(CCCCCC(=O)N3CCN(c4ccc(Cl)cc4)CC3)c(=O)[nH]c2c1 -8.62%, COc1cccc(C(=O)n2nc(-c3cccnc3)nc2NCc2ccc(F)cc2)c1 -5.69%, CCN(CC)CCSc1nnc2c3cc(F)ccc3n(CC)c2n1 -16.6%, COc1ccccc1CNC(=O)Cn1c(=O)nc(-c2ccccc2)c2ccccc21 -0.5%, CCCSc1nnc2c(n1)OC(c1cccs1)Nc1ccc(Br)cc1-2 (stereo unspecified) 10.3% [at 11.5 µM, percent change from vehicle, -100% = no light], Oc1c(C(c2ccccc2F)N2CCCC2)sc2nc(-c3ccco3)nn12 (stereo unspecified) -12.6%, Cc1c(Cl)cccc1NC(=O)Nc1ccc2snnc2c1 -35.8%, O=C(NCCc1ccccc1)c1ccc(CS(=O)(=O)c2ccc(Cl)cc2)o1 -7.65%, CNCCC(Oc1ccccc1OC)c1ccccc1 (stereo unspecified) -2.19%, COc1ccc(OCC(=O)NCC(c2ccc(OC)cc2)N2CCOCC2)cc1 (stereo unspecified) -14.7%, Cc1ccc(C)c(N2CCN(C(=O)CS(=O)(=O)c3cccc4nsnc34)CC2)c1 -45.5%, Cc1cc(NC(=O)C(C)(C)C)cc(-c2nc3ncccc3o2)c1O 27.6%, Cc1cc(NC(=O)c2cnc3c(-c4ccccc4)c(C)nn3c2C)ccc1Br -4.85%, Cc1cccc(N2CCN(C(=O)CN3C(=O)COc4ccc(S(=O)(=O)N5CCCC5)cc43)CC2C)c1 (stereo unspecified) -25.2%, CCc1c(CN2CCN(c3ccccc3F)CC2)csc1C -3.92%, CCn1c(SCC(=O)c2ccccc2)nnc1-c1cccc(Cl)c1 -10.5%, Cc1ccc(/C=C/c2onc(C)c2S(=O)(=O)N2CCC(C(=O)NCc3ccc(OC(C)C)cc3)CC2)cc1 13%, O=C(Cn1c(-c2cccs2)cc2cc(F)ccc21)NCCCN1CCN(c2ccc(F)cc2)CC1 -30.3%, COc1cccc(CNCCSc2nnnn2-c2ccccc2)c1OC -3.95%, COc1ccc(-c2c(C)c3ccc(O)c(CN4CCCC4)c3oc2=O)cc1 2.87%

Source: PubChem BioAssay AID1508624 (National Center for Advancing Translational Sciences (NCATS), 2021)
